From ChEMBL document CHEMBL3526086, “Identification of the oxidative and conjugative enzymes involved in the biotransformation of brivanib” (Drug Metab Dispos, 2012) come the findings set out here.

Substrate in the data set: Cc1cc2c(F)c(Oc3ncnn4cc(OC[C@@H](C)O)c(C)c34)ccc2[nH]1
In words: Activity of human CYP3A4 assessed as enzyme-mediated (R)-1-(4-(4-fluoro-2-(hydroxymethyl)-1H-indol-5-yloxy)-5-methylpyrrolo[1,2-f][1,2,4]triazin-6-yloxy)propan-2-ol formation in presence of NADPH. It counts as ADME.

B1: Cytochrome P450 3A4 (Homo sapiens) (protein)
chain: MALIPDLAMETWLLLAVSLVLLYLYGTHSHGLFKKLGIPGPTPLPFLGNILSYHKGFCMFDMECHKKYGKVWGFYDGQQPVLAITDPDMIKTVLVKECYSVFTNRRPFGPVGFMKSAISIAEDEEWKRLRSLLSPTFTSGKLKEMVPIIAQYGDVLVRNLRREAETGKPVTLKDVFGAYSMDVITSTSFGVNIDSLNNPQDPFVENTKKLLRFDFLDPFFLSITVFPFLIPILEVLNICVFPREVTNFLRKSVKRMKESRLEDTQKHRVDFLQLMIDSQNSKETESHKALSDLELVAQSIIFIFAGYETTSSVLSFIMYELATHPDVQQKLQEEIDAVLPNKAPPTYDTVLQMEYLDMVVNETLRLFPIAMRLERVCKKDVEINGMFIPKGVVVMIPSYALHRDPKYWTEPEKFLPERFSKKNKDNIDPYIYTPFGSGPRNCIGMRFALMNMKLALIRVLQNFSFKPCKETQIPLKLSLGGLLQPEKPVVLKVESRDGTVSGA
By Km is commonly meant the concentration of substrate that gives half-maximal velocity. A word on the Vmax: it is the top rate of the reaction or transport when substrate is in excess. For the protein B1, the Michaelis constant (Km) amounted to 32.7 µM and the Vmax amounted to 5.3e-07 µmol/min.
